# Measurements from the supplement of paper PMC8728848.
# The other results are listed elsewhere or left out.
# Assays:
# Assay in all cases: glycan array binding signal (z-score within array); higher = stronger binding
# Conditions in all cases: glycan notation: IUPAC condensed, linker removed
# [1] = molecular target: Man(a1-3)[Man(a1-6)]Man(a1-6)[Man(a1-3)]Man
# Procedure, shortened: (§1)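 The Consortium for Functional Glycomics database supplied 3228 glycan arrays, of which those lacking an available protein sequence were dropped. The binding signal, a within-array Z-score, was averaged across arrays of the same protein sequence and across linkers. Negative scores can be read as non-binding.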
# [2] = molecular target: Man(a1-3)[Man(a1-6)]Man(a1-6)[Man(a1-3)]Man(b1-4)GlcNAc(b1-4)GlcNAc
# Procedure, shortened: as §1
# [3] = molecular target: Man(a1-3)[Man(a1-6)]Man(b1-4)GlcNAc(b1-4)GlcNAc
# Procedure, shortened: as §1
# [4] = molecular target: Man(a1-3)[Man(a1-6)]Man(b1-4)GlcNAc(b1-4)[Fuc(a1-6)]GlcNAc
# Procedure, shortened: as §1
# Man(a1-6)Man = molecular target: Man(a1-6)Man
# Procedure, shortened: as §1
# Man(b1-4)GlcNAc = molecular target: Man(b1-4)GlcNAc
# Procedure, shortened: as §1
# MurNAc(b1-4)GlcNAc = molecular target: MurNAc(b1-4)GlcNAc
# Procedure, shortened: as §1
# Neu5Ac(a2-3)Gal = molecular target: Neu5Ac(a2-3)Gal
# Procedure, shortened: as §1
# [5] = molecular target: Neu5Ac(a2-3)Gal(b1-3)GalNAc
# Procedure, shortened: as §1
# [6] = molecular target: Neu5Ac(a2-3)Gal(b1-3)GalNAc(b1-3)Gal(a1-4)Gal(b1-4)Glc
# Procedure, shortened: as §1
# [7] = molecular target: Neu5Ac(a2-3)Gal(b1-3)GalNAc(b1-4)Gal(b1-4)Glc
# Procedure, shortened: as §1
# [8] = molecular target: Neu5Ac(a2-3)Gal(b1-3)GalNAc(b1-4)[Neu5Ac(a2-3)]Gal(b1-4)Glc
# Procedure, shortened: as §1
# [9] = molecular target: Neu5Ac(a2-3)Gal(b1-3)GalNAc(b1-4)[Neu5Ac(a2-8)Neu5Ac(a2-3)]Gal(b1-4)Glc
# Procedure, shortened: as §1
# [10] = molecular target: Neu5Ac(a2-3)Gal(b1-3)GalNAc6S
# Procedure, shortened: as §1
# [11] = molecular target: Neu5Ac(a2-3)Gal(b1-3)GlcNAc
# Procedure, shortened: as §1
# [12] = molecular target: Neu5Ac(a2-3)Gal(b1-3)GlcNAc(b1-2)Man
# Procedure, shortened: as §1
# [13] = molecular target: Neu5Ac(a2-3)Gal(b1-3)GlcNAc(b1-2)Man(a1-3)[GlcNAc(b1-4)][Neu5Ac(a2-3)Gal(b1-3)GlcNAc(b1-2)Man(a1-6)]Man(b1-4)GlcNAc(b1-4)GlcNAc
# Procedure, shortened: as §1
# [14] = molecular target: Neu5Ac(a2-3)Gal(b1-3)GlcNAc(b1-2)Man(a1-3)[Neu5Ac(a2-3)Gal(b1-3)GlcNAc(b1-2)Man(a1-6)]Man(b1-4)GlcNAc(b1-4)GlcNAc
# Procedure, shortened: as §1
# [15] = molecular target: Neu5Ac(a2-3)Gal(b1-3)GlcNAc(b1-2)[Neu5Ac(a2-3)Gal(b1-3)GlcNAc(b1-4)]Man(a1-6)[Neu5Ac(a2-3)Gal(b1-3)GlcNAc(b1-2)Man(a1-3)]Man(b1-4)GlcNAc(b1-4)GlcNAc
# Procedure, shortened: as §1
# [16] = molecular target: Neu5Ac(a2-3)Gal(b1-3)GlcNAc(b1-3)Gal(b1-3)GlcNAc
# Procedure, shortened: as §1
# [17] = molecular target: Neu5Ac(a2-3)Gal(b1-3)GlcNAc(b1-3)Gal(b1-4)GlcNAc
# Procedure, shortened: as §1
# [18] = molecular target: Neu5Ac(a2-3)Gal(b1-3)GlcNAc(b1-3)GalNAc
# Procedure, shortened: as §1
# [19] = molecular target: Neu5Ac(a2-3)Gal(b1-3)GlcNAc(b1-6)GalNAc
# Procedure, shortened: as §1
# [20] = molecular target: Neu5Ac(a2-3)Gal(b1-3)GlcNAc6S
# Procedure, shortened: as §1
# [21] = molecular target: Neu5Ac(a2-3)Gal(b1-3)[Fuc(a1-4)]GlcNAc
# Procedure, shortened: as §1
# [22] = molecular target: Neu5Ac(a2-3)Gal(b1-3)[Fuc(a1-4)]GlcNAc(b1-3)Gal(b1-3)[Fuc(a1-4)]GlcNAc
# Procedure, shortened: as §1
# [23] = molecular target: Neu5Ac(a2-3)Gal(b1-3)[Fuc(a1-4)]GlcNAc(b1-3)Gal(b1-4)[Fuc(a1-3)]GlcNAc
# Procedure, shortened: as §1
# [24] = molecular target: Neu5Ac(a2-3)Gal(b1-3)[GlcNAc(b1-6)]GalNAc
# Procedure, shortened: as §1
# [25] = molecular target: Neu5Ac(a2-3)Gal(b1-3)[Neu5Ac(a2-6)]GalNAc
# Procedure, shortened: as §1
# [26] = molecular target: Neu5Ac(a2-3)Gal(b1-3)[Neu5Ac(a2-6)]GlcNAc(b1-3)[Fuc(a1-3)[Gal(b1-4)]GlcNAc(b1-6)]Gal(b1-4)Glc
# Procedure, shortened: as §1
# [27] = molecular target: Neu5Ac(a2-3)Gal(b1-3)]Neu5Ac(a2-3)Gal(b1-4)]GlcNAc
# Procedure, shortened: as §1
# Neu5Ac(a2-3)Gal(b1-4)Glc = molecular target: Neu5Ac(a2-3)Gal(b1-4)Glc
# Procedure, shortened: as §1
# [28] = molecular target: Neu5Ac(a2-3)Gal(b1-4)GlcNAc
# Procedure, shortened: as §1
# [29] = molecular target: Neu5Ac(a2-3)Gal(b1-4)GlcNAc(b1-2)Man
# Procedure, shortened: as §1
# [30] = molecular target: Neu5Ac(a2-3)Gal(b1-4)GlcNAc(b1-2)Man(a1-3)[GlcNAc(b1-4)][Neu5Ac(a2-3)Gal(b1-4)GlcNAc(b1-2)Man(a1-6)]Man(b1-4)GlcNAc(b1-4)GlcNAc
# Procedure, shortened: as §1
# [31] = molecular target: Neu5Ac(a2-3)Gal(b1-4)GlcNAc(b1-2)Man(a1-3)[Neu5Ac(a2-3)Gal(b1-4)GlcNAc(b1-2)Man(a1-6)]Man(b1-4)GlcNAc(b1-4)GlcNAc
# Procedure, shortened: as §1
# [32] = molecular target: Neu5Ac(a2-3)Gal(b1-4)GlcNAc(b1-2)Man(a1-3)[Neu5Ac(a2-3)Gal(b1-4)GlcNAc(b1-2)Man(a1-6)]Man(b1-4)GlcNAc(b1-4)[Fuc(a1-6)]GlcNAc
# Procedure, shortened: as §1
# [33] = molecular target: Neu5Ac(a2-3)Gal(b1-4)GlcNAc(b1-2)Man(a1-3)[Neu5Ac(a2-6)Gal(b1-4)GlcNAc(b1-2)Man(a1-6)]Man(b1-4)GlcNAc(b1-4)GlcNAc
# Procedure, shortened: as §1
binder,measurement,setting,value
B1257 (Bifidobacterium sp) (protein) MKKSIRLVAAIAALAMTAGISACGSSTNGNQAKSDVTAQDVETALTDTSKNVELTVWAYSAKQMEPTVKAFEKKYPHIKINFVNTGAAGDHFTKFQNVVQAQKDIPDVVQMGANKFQQFAVSGALLNFANDSIEKAWSKLYTKTAWAQVHYAGGLYGAPQDATPLANYVRKDILDEHNLQVPESWEDIYNEGIKLHKEDSNKYMGILGSDISFFTNLYRSVGARLWKVNSVDDVELTMNSGKAKEFTEFLQKCLKDGVLEGGTVFTDEFNRSINDGRYATFINENWMGNTYKEQNPSLKGKMVVAAPPSWKGQPYQSSSVGSMMSVSAACPKEKQAAALAFINWLDSDKDAIQSWQDTNNGNFFMAASVYQDDENQRNKKETDGYYANDDVNAVYFDSMDKVNTDWEYLPFMSQVEVVFNDVIVPQMNENGDLVGAMAKAQQELKTYAKDNGFKVTTDAD,glycan array binding signal (z-score),[1],-0.148
same,glycan array binding signal (z-score),[2],-0.034
same,glycan array binding signal (z-score),[3],-0.18
same,glycan array binding signal (z-score),[4],-0.128
same,glycan array binding signal (z-score),Man(a1-6)Man,-0.139
same,glycan array binding signal (z-score),Man(b1-4)GlcNAc,-0.108
same,glycan array binding signal (z-score),MurNAc(b1-4)GlcNAc,-0.09
same,glycan array binding signal (z-score),Neu5Ac(a2-3)Gal,-0.115
same,glycan array binding signal (z-score),[5],-0.071
same,glycan array binding signal (z-score),[6],-0.056
same,glycan array binding signal (z-score),[7],-0.101
same,glycan array binding signal (z-score),[8],-0.062
same,glycan array binding signal (z-score),[9],-0.125
same,glycan array binding signal (z-score),[10],-0.118
same,glycan array binding signal (z-score),[11],-0.109
same,glycan array binding signal (z-score),[12],-0.095
same,glycan array binding signal (z-score),[13],-0.048
same,glycan array binding signal (z-score),[14],-0.027
same,glycan array binding signal (z-score),[15],-0.013
same,glycan array binding signal (z-score),[16],-0.195
same,glycan array binding signal (z-score),[17],-0.142
same,glycan array binding signal (z-score),[18],-0.12
same,glycan array binding signal (z-score),[19],-0.02
same,glycan array binding signal (z-score),[20],-0.184
same,glycan array binding signal (z-score),[21],-0.08
same,glycan array binding signal (z-score),[22],0.035
same,glycan array binding signal (z-score),[23],0.01
same,glycan array binding signal (z-score),[24],0.008
same,glycan array binding signal (z-score),[25],0.04
same,glycan array binding signal (z-score),[26],-0.061
same,glycan array binding signal (z-score),[27],-0.147
same,glycan array binding signal (z-score),Neu5Ac(a2-3)Gal(b1-4)Glc,-0.103
same,glycan array binding signal (z-score),[28],-0.138
same,glycan array binding signal (z-score),[29],0.015
same,glycan array binding signal (z-score),[30],-0.115
same,glycan array binding signal (z-score),[31],-0.163
same,glycan array binding signal (z-score),[32],-0.039
same,glycan array binding signal (z-score),[33],-0.138
